# Measurements as given in the supplement of paper PMC4604168 (melanoma cell lines).
# The list shows a part of the results. Many values rest on one well or one pass, so single values are uncertain.
# Legend:
# Experiment in all cases: cell count relative to DMSO control; melanoma cells; higher = more viable cells
# Details in all cases: library dose: standard library concentration; 72 h
# [1] = test system: G361
# [2] = test system: IPC-298
# [3] = test system: IST-MEL1
# [4] = test system: LB2518-MEL
# [5] = test system: LOXIMVI
# [6] = test system: MEL-HO
# [7] = test system: MZ2-MEL
# [8] = test system: MeWo
# [9] = test system: RPMI7951
# [10] = test system: RVH-421
# [11] = test system: SkMel28
# [12] = test system: SkMel2
# [13] = test system: SkMel30
# [14] = test system: SkMel5
# [15] = test system: UACC257
# [16] = test system: UACC62
# [17] = test system: WM115
# [18] = test system: WM1716
# [19] = test system: WM1745
# [20] = test system: WM3526
# 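Note: cells treated in 1,536-well plates, then fixed and DAPI-stained, with nuclei counted from automated high-throughput microscope images.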
Structure (SMILES),cell count [1],cell count [2],cell count [3],cell count [4],cell count [5],cell count [6],cell count [7],cell count [8],cell count [9],cell count [10],cell count [11],cell count [12],cell count [13],cell count [14],cell count [15],cell count [16],cell count [17],cell count [18],cell count [19],cell count [20]
"CC[C@]1(O)C[C@H]2CN(CCc3c([nH]c4ccccc34)[C@@](C(=O)OC)(c3cc4c(cc3OC)N(C=O)[C@H]3[C@@](O)(C(=O)OC)[C@H](OC(C)=O)[C@]5(CC)C=CCN6CC[C@]43[C@@H]65)C2)C1 [vincristine] + CC(C)C[C@H](NC(=O)[C@H](Cc1ccccc1)NC(=O)c1cnccn1)B(O)O [Bortezomib] (first compound 0.0005 µM, partner dose 0.005 µM)",1.92%,8.54%,15.8%,6.86%,35.1%,46.8%,5.29%,14.7%,4.83%,9.69%,19.8%,35.6%,30.7%,25.8%,66.8%,57.5%,29.4%,15.1%,24.6%,29.3%
"CC[C@]1(O)C[C@H]2CN(CCc3c([nH]c4ccccc34)[C@@](C(=O)OC)(c3cc4c(cc3OC)N(C=O)[C@H]3[C@@](O)(C(=O)OC)[C@H](OC(C)=O)[C@]5(CC)C=CCN6CC[C@]43[C@@H]65)C2)C1 [vincristine] + Cc1cn(-c2cc(NC(=O)c3ccc(C)c(Nc4nccc(-c5cccnc5)n4)c3)cc(C(F)(F)F)c2)cn1 [nilotinib] (first compound 0.0005 µM, partner dose 1 µM)",99.3%,98.3%,86.8%,110%,116%,105%,90.1%,108%,50.7%,74.7%,71.2%,94.2%,52.1%,74.7%,96.8%,69.8%,106%,57.1%,80.8%,63.2%
"Cc1cc(Nc2cc(N3CCN(C)CC3)nc(Sc3ccc(NC(=O)C4CC4)cc3)n2)n[nH]1 [Tozasertib] + O=C(O)c1ccc(-c2c[nH]c3ncc(-c4ccccc4)cc23)cc1C1CCCC1 [GSK650394] (first compound 0.03 µM, partner dose 0.8 µM)",67.8%,90.4%,70.5%,78.5%,103%,72.7%,88.8%,69%,75%,98.3%,48.1%,75.4%,103%,71.6%,77.1%,75.4%,57.5%,77.8%,74.2%,81.1%
"CC[C@]1(O)C[C@H]2CN(CCc3c([nH]c4ccccc34)[C@@](C(=O)OC)(c3cc4c(cc3OC)N(C=O)[C@H]3[C@@](O)(C(=O)OC)[C@H](OC(C)=O)[C@]5(CC)C=CCN6CC[C@]43[C@@H]65)C2)C1 [vincristine] + Cn1sc(=O)n(Cc2ccccc2)c1=O [TDZD-8] (first compound 0.0005 µM, partner dose 2 µM)",90.5%,94.8%,101%,101%,64.8%,105%,94.2%,92.1%,50.5%,60.1%,88.7%,103%,105%,116%,106%,78.1%,73.6%,56.8%,83.8%,76.8%
"CC[C@]1(O)C[C@H]2CN(CCc3c([nH]c4ccccc34)[C@@](C(=O)OC)(c3cc4c(cc3OC)N(C=O)[C@H]3[C@@](O)(C(=O)OC)[C@H](OC(C)=O)[C@]5(CC)C=CCN6CC[C@]43[C@@H]65)C2)C1 [vincristine] + C[C@@H](N)c1ccc(C(=O)Nc2ccnc3[nH]ccc23)cc1 [RKI983] (first compound 0.0005 µM, partner dose 2 µM)",54.1%,76.7%,38.1%,72.9%,63.6%,54.1%,31.6%,17.8%,48.9%,59%,36%,14.4%,41.1%,25.7%,35.1%,38.7%,28.7%,26.2%,41.7%,34.4%
"N#CC[C@H](C1CCCC1)n1cc(-c2ncnc3[nH]ccc23)cn1 [ruxolitinib] + COCC[n+]1c2c(n(Cc3cnccn3)c1C)C(=O)c1ccccc1C2=O [YM155] (first compound 5 µM, partner dose 0.002 µM)",49.2%,60.8%,53.6%,45.2%,72%,75.1%,27.4%,39.5%,44.3%,72.9%,36.4%,34.2%,83.8%,29.8%,29.1%,48.1%,95.9%,52.8%,76.4%,52%
"CC[C@]1(O)C[C@H]2CN(CCc3c([nH]c4ccccc34)[C@@](C(=O)OC)(c3cc4c(cc3OC)N(C=O)[C@H]3[C@@](O)(C(=O)OC)[C@H](OC(C)=O)[C@]5(CC)C=CCN6CC[C@]43[C@@H]65)C2)C1 [vincristine] + CCCCCCCCc1ccc(CCC(N)(CO)CO)cc1 [fingolimod] (first compound 0.0005 µM, partner dose 10 µM)",0.509%,24.2%,5.18%,0.248%,23.7%,2%,0.401%,28.5%,2.27%,19.1%,1%,0.347%,14.3%,74.6%,75.5%,22.1%,13.7%,30.2%,8.29%,32.8%
"CC[C@]1(O)C[C@H]2CN(CCc3c([nH]c4ccccc34)[C@@](C(=O)OC)(c3cc4c(cc3OC)N(C=O)[C@H]3[C@@](O)(C(=O)OC)[C@H](OC(C)=O)[C@]5(CC)C=CCN6CC[C@]43[C@@H]65)C2)C1 [vincristine] + CCCS(=O)(=O)Nc1ccc(F)c(C(=O)c2c[nH]c3ncc(Cl)cc23)c1F [PLX4720] (first compound 0.0005 µM, partner dose 0.4 µM)",63.6%,69.6%,93.3%,91.1%,86.7%,86.7%,83.8%,123%,80.2%,75.5%,50.3%,83.7%,61.4%,68.3%,83.3%,49.1%,71%,53.8%,88.1%,58.3%
